# Results published in the BET-seq Pho4 binding data (Le et al. 2018).
# The other results are listed elsewhere or left out. These are noisy estimates, calculated here from bound and input reads.
# Target: T1, Pho4 (S. cerevisiae) (UniProt P07270)
# T1 sequence: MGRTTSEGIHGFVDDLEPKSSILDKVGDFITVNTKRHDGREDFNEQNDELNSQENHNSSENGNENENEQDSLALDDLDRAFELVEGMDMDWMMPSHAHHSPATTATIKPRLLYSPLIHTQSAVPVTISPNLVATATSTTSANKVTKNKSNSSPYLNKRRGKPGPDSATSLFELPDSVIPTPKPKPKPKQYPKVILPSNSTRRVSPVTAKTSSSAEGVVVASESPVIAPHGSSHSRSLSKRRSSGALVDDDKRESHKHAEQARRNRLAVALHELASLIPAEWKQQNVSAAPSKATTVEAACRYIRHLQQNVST
# Experiment: relative binding free energy (BET-seq); higher = weaker binding
# Settings: reference: library average
row,Sequence,relative binding free energy [kcal/mol]
1,TGTCGCACGTGGAGCG,0
2,GGCCACACGTGTGGGT,0.03
3,AGGAGCACGTGGGCGG,-0.25
4,TTGTACACGTGGCATG,-0.09
5,CGCTGCACGTGGATGG,0.09
6,GGGTTCACGTGAATAT,0.45
7,CTGTTCACGTGTGTGT,0.17
8,GGTCTCACGTGGGTCG,0.19
9,GTCAACACGTGGGTAG,-0.06
10,GGGCGCACGTGTTGAG,0.06
11,GATCTCACGTGATGTT,0.4
12,ATTGTCACGTGATCTG,0.12
13,AAAAGCACGTGTGAGG,-0.07
14,CCTGGCACGTGAAGGT,0.13
15,GCTTACACGTGGGGTA,-0.12
16,AGGGCCACGTGGGGCA,-0.3
17,TATTGCACGTGGATTG,0.06
18,TATCGCACGTGGATGG,-0.04
19,TGTATCACGTGGAGTT,0.24
20,TGGGCCACGTGGAGGA,-0.11
21,GTCGGCACGTGGTTTG,-0.14
22,GTATACACGTGATCTT,0.31
23,TTATTCACGTGGATCT,0.21
24,CGTTACACGTGAGGTA,0.24
25,GATGGCACGTGCGTGT,-0.08
26,CTTTACACGTGGTTAT,0.06

row,Sequence,relative binding free energy [kcal/mol]
1,GCTTTCACGTGGTGGA,0.23
2,GTGGGCACGTGTTAAT,0.05
3,GGAGCCACGTGCGTGG,-0.08
4,TTATTCACGTGCGGTA,0.27
5,TATATCACGTGGAAAG,0.32
6,ACGGTCACGTGAATTT,0.37
7,TGTGTCACGTGGGGGT,-0.03
8,ATGTACACGTGCTGGA,0.11
9,TAATGCACGTGGGGAT,-0.23
10,TTGTACACGTGGTTAA,0.05
11,ATGGGCACGTGCAGTT,-0.12
12,GTATACACGTGCGTTA,-0.05
13,TCTTGCACGTGTTCTG,0.04
14,TGGGTCACGTGGGGCC,0.11
15,GTGTGCACGTGGGTTT,-0.02
16,TTCGTCACGTGAGAGG,0.26
17,GTGTGCACGTGCAGTA,-0.09
18,TGCTGCACGTGTCTTT,-0.07
19,CACGTCACGTGTGTGG,0.09
20,TGAGGCACGTGGAAAG,0.09
21,AGTATCACGTGGGTGA,-0.07
22,GGAGACACGTGGGGTA,-0.1
23,ACGGGCACGTGTTTCG,-0.05
24,AGGTCCACGTGGTATT,-0.01
25,TTTAACACGTGGGGTG,-0.22
26,GGATTCACGTGGAGGA,0.19

row,Sequence,relative binding free energy [kcal/mol]
1,GGGCGCACGTGGGCCG,-0.14
2,TTAACCACGTGTGTGA,0.03
3,TTGTGCACGTGTTGAC,-0.01
4,ATGTTCACGTGGAGAG,0.28
5,GCTTGCACGTGTTGTA,0.08
6,CGCGGCACGTGGTGAT,-0.12
7,GACAGCACGTGTAGGG,-0.02
8,AGTGTCACGTGAGCTG,0.29
9,ATAGGCACGTGGCATT,-0.28
10,TTAGCCACGTGGTATT,-0.19
11,ATGGTCACGTGTTCGT,0.11
12,AAGGGCACGTGTGATC,-0.04
13,GTCGTCACGTGAGGCG,0.28
14,ATGTGCACGTGGATTG,0.02
15,TGTGGCACGTGTTGGC,-0.08
16,AAGGGCACGTGATAGG,-0.07
17,AGTATCACGTGATTTC,0.34
18,TGTGGCACGTGCGAAA,0.03
19,TCAATCACGTGGGTGT,0.07
20,GGCTACACGTGAGGTA,0.35
21,ACTTGCACGTGCGTGT,-0.05
22,TTAGGCACGTGTTGCT,-0.03
23,GTGGACACGTGGTGGT,0.06
24,TCATTCACGTGGGGCG,0.25
25,AGGTTCACGTGGTTCT,0.15
26,GTTGTCACGTGTTGAA,0.16

row,Sequence,relative binding free energy [kcal/mol]
1,GTGTGCACGTGTTTCG,0.01
2,ATGCTCACGTGTGTTT,0.19
3,ATCGTCACGTGGGGAG,-0.05
4,TTGTGCACGTGAGAGG,0.27
5,TTATACACGTGCGCTT,0.08
6,GGAGTCACGTGTTGGC,0.07
7,ATAATCACGTGTGTTA,0.11
8,AAGAGCACGTGTATGG,-0.12
9,TATGGCACGTGTTGCA,-0.16
10,TCGTTCACGTGGGCAG,0.06
11,AATATCACGTGGGAAG,0.01
12,CTTGTCACGTGAGGTT,0.19
13,AGATGCACGTGCTGAT,0.1
14,TTTAACACGTGTTATT,0.11
15,TGTCACACGTGTAAGT,0.07
16,GAGTCCACGTGGGGCT,-0.02
17,TTTCGCACGTGGGATG,-0.2
18,GGGCTCACGTGGAATG,0.3
19,GGTGGCACGTGGAATT,0
20,TTGCACACGTGGTGGA,-0.09
21,GTCTACACGTGCGTGG,0.07
22,GATGGCACGTGACGGG,0.11
23,GGGGTCACGTGCGTTG,0.11
24,CAGGTCACGTGTGGAG,0.16
25,AAGCACACGTGTTGGG,0.15
26,CTGCGCACGTGGGTGC,-0.2

row,Sequence,relative binding free energy [kcal/mol]
1,GAGGTCACGTGGGGAT,0.06
2,ATTTTCACGTGTTAAA,0.02
3,ATGTCCACGTGTGGTC,0.23
4,AGGTCCACGTGGGTTA,-0.16
5,TTAGGCACGTGTATGC,-0.04
6,TTGGTCACGTGCATAT,0.11
7,GCGTTCACGTGTGTTT,0.32
8,GTCGGCACGTGAGTTG,0.16
9,GATGACACGTGAGATT,0.37
10,TTTTACACGTGTTTTA,0.12
11,TTGTACACGTGGGCTT,0.01
12,AGCTGCACGTGTGCGG,0.02
13,TATAGCACGTGTAGGG,0.01
14,TGTCGCACGTGTGGGG,0.03
15,CTCGGCACGTGTTGGT,-0.15
16,GGGCTCACGTGGTGTC,0.2
17,GAGTTCACGTGGGGTT,0.26
18,AGTATCACGTGTGTTT,0.2
19,GCTGGCACGTGTGGGA,0.14
20,TTAAGCACGTGTTTAG,-0.05
21,TGTAGCACGTGTGTGA,-0.11
22,TGTGGCACGTGGACGT,-0.05
23,ACTGGCACGTGGCTGG,-0.13
24,GTTGGCACGTGTGGCC,-0.07
25,TATTACACGTGTGGGT,0.2
26,GGGGTCACGTGGAATA,0.14

row,Sequence,relative binding free energy [kcal/mol]
1,TGCCGCACGTGGGGGA,-0.28
2,TATTGCACGTGATATA,0.01
3,TATTTCACGTGCTGAG,0.24
4,TGGGGCACGTGTAGAT,0.16
5,TGGGGCACGTGCAGCG,-0.08
6,TATGGCACGTGACGTG,-0.01
7,CTGTTCACGTGGCGCG,0.31
8,TGGAGCACGTGCATTG,-0.09
9,GTCTTCACGTGTTTAG,0.34
10,GGTGTCACGTGGAAAG,0.16
11,GGTTTCACGTGAGTCT,0.35
12,GTAGGCACGTGTAGTC,0
13,GGTAGCACGTGCGTTT,-0.01
14,TTGGGCACGTGTTCCT,-0.01
15,GGTAACACGTGGGTGC,-0.04
16,TGGGGCACGTGAGAGT,0.19
17,CATGGCACGTGGTATT,-0.16
18,TGTACCACGTGGGTTG,-0.26
19,TTGGGCACGTGATGGC,0.09
20,CGTGGCACGTGAAGGG,0.15
21,TAAGGCACGTGCGAGT,-0.15
22,AGATTCACGTGGTGGC,0.34
23,AGGGGCACGTGGAGAG,-0.17
24,AGTGTCACGTGCTGTT,0.1
25,GGTTGCACGTGCGTTA,-0.07
26,TCTAGCACGTGTTTAG,-0.14

row,Sequence,relative binding free energy [kcal/mol]
1,GGGAACACGTGGTCGT,0.11
2,GAGTACACGTGTTTCG,0.21
3,ATGTGCACGTGGTGGG,-0.07
4,CGACTCACGTGGTGTT,0.19
5,GTGTTCACGTGAAATT,0.38
6,TAAGTCACGTGATTTT,0.22
7,TATGACACGTGGTCGT,-0.15
8,GATGTCACGTGGATGT,0.24
9,AGTGTCACGTGGAATT,0.22
10,TGTTGCACGTGCGGAT,-0.06
11,GGTTTCACGTGATGAG,0.5
12,GCTTGCACGTGGGGAA,-0.11
13,CATATCACGTGTGGGT,0.14
14,GTTTCCACGTGCTTGG,0.07
15,GCGGGCACGTGTCGCT,0.1
16,ATGGTCACGTGCTAGG,-0.01
17,AAGGTCACGTGGCCTT,0.1
18,GAGGACACGTGGGGGT,-0.02
19,CCGGACACGTGAGGGG,0.15
20,CAATGCACGTGTAGGG,-0.03
21,AGCGTCACGTGTCGGG,0.12
22,TGTGCCACGTGAGTGT,-0.03
23,GGTCGCACGTGCTTGG,-0.08
24,TGTGTCACGTGTTGCG,0.09
25,GGGGGCACGTGCAAGT,0.01
26,TCGGGCACGTGCTGGT,-0.04

row,Sequence,relative binding free energy [kcal/mol]
1,CAGTACACGTGGGTGT,-0.08
2,TGGACCACGTGGGGCA,-0.16
3,GTTTTCACGTGGTTTC,0.26
4,GTCAACACGTGTTGGT,0.08
5,GAAGGCACGTGATTTG,0.15
6,GTGTTCACGTGGCTCG,0.16
7,CGTGCCACGTGCGGTG,0.06
8,GATGGCACGTGCTAGT,-0.09
9,GGGCGCACGTGCGGCG,-0.16
10,GTCATCACGTGGGTGT,0.17
11,AGATTCACGTGAGCTT,0.37
12,AGCTGCACGTGTGGCG,0.05
13,ATTCGCACGTGCTTTT,-0.08
14,AAAGTCACGTGTGTAT,0.21
15,TGTCACACGTGGTCTG,-0.03
16,ATGGGCACGTGTAGAA,-0.09
17,AGGGACACGTGTGGGA,-0.04
18,TGGGCCACGTGTAAAG,0.07
19,TTCTTCACGTGGGGTA,0.06
20,AGTATCACGTGGGAGT,0.12
21,TAGGACACGTGGGTTG,-0.03
22,ACGGTCACGTGGGTTT,0
23,GGGGACACGTGGGTAA,0
24,TATAACACGTGGGTAG,-0.14
25,CTGATCACGTGATTGT,0.21
26,TGTATCACGTGTCAAG,0.07

row,Sequence,relative binding free energy [kcal/mol]
1,TTGGGCACGTGTCTTG,-0.02
2,GTTTGCACGTGGCGGT,-0.08
3,CTGAGCACGTGAGAGG,0.1
4,TGTTTCACGTGATTTG,0.34
5,GTGGTCACGTGCTTTG,0.16
6,AACGGCACGTGAGGGT,0.09
7,TTTTGCACGTGGTGTT,-0.04
8,AAATACACGTGGGGCG,-0.09
9,AGGATCACGTGCGTGT,0.24
10,GGATGCACGTGAGACG,0.23
11,CGGTGCACGTGTGCGA,-0.09
12,GGCGTCACGTGAAAGG,0.45
13,GTAAACACGTGTTTTG,0.13
14,TTTCGCACGTGCTGGA,-0.11
15,GGATTCACGTGCTGGG,0.34
16,AGAGGCACGTGGCGCG,-0.2
17,GTGTTCACGTGGTTCA,0.18
18,TGCTTCACGTGCGTGA,0.18
19,TGCTTCACGTGACGGG,0.23
20,GGGGTCACGTGGTGGA,0.09
21,TTTAGCACGTGGTTCA,-0.08
22,GGTTTCACGTGAAAGG,0.48
